The text below walks through data of PubChem BioAssay AID360 (National Center for Advancing Translational Sciences (NCATS), 2006).

Structures are written as SMILES. Out of some 48,000 compounds screened, about 550 (1.1%) were called active. Inconclusive results (about 4%) are left out. Rule as the data show it: active = potency below about 15 µM; inconclusive = mostly about 16 µM to 33 µM; inactive = weaker than that. The list shows a part of the results. A value given as a limit tells only on which side of the number the result lay.
Potency is read from the fitted curve at half-maximal effect.

The experiment has as its target Lysosomal acid glucosylceramidase (Homo sapiens) (UniProt P04062). Briefly: Glucocerebrosidase.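 Also: the screen sought inhibitors.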 The following applies: purified enzyme, resorufin glucoside fluorescence (screen aimed at inhibitors), 20 min. The essentials: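 Normal human glucocerebrosidase (0.2 nM final) was assayed with resorufin β-D-glucopyranoside (30 uM final) in 50mM citric acid/KH2PO4, 10mM sodium taurocholate, 0.01% tween-20, pH 5.9. Compounds were titrated; fluorescence (Ex 548, Em 600) read after 20 min at RT.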
Sequence of UniProt P04062 (P04062 whole entry, looked up): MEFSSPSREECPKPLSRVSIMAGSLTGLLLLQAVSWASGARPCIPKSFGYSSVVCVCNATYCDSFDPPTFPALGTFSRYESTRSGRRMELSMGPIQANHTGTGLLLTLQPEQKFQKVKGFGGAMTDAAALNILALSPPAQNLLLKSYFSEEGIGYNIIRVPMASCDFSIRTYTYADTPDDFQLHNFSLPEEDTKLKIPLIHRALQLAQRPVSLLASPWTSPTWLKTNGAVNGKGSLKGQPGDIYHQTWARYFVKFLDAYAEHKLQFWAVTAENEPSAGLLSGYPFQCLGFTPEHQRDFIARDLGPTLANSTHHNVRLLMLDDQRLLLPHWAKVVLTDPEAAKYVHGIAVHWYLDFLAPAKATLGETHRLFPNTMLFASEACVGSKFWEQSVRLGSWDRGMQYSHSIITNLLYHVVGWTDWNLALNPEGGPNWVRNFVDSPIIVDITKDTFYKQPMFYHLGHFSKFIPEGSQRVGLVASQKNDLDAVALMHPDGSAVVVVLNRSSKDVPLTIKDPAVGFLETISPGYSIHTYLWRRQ
For the compound `Cc1ccc(C(=O)N2CCN(c3ccc(Cl)cc3)CC2)cc1`, the Potency was inactive: > 76.9 µM. For `Cc1cc(C)nc(Nc2nc(C)c3cc4c(cc3n2)OCO4)n1`, the Potency is inactive: > 76.9 µM.

Take `O=C(c1cccc(F)c1)N1CCCC(C(=O)N2CCCC2)C1` (configuration not stated): the Potency was inactive: > 76.9 µM. In the case of `CCOc1ccc2[nH]c(O)c(NC(C)=O)c2c1` it was inactive: > 76.9 µM; in that of `O=C(CSc1nc2ccccc2c(=O)n1Cc1ccco1)N1CCN(c2ccccc2)CC1`, inactive: > 76.9 µM. As for `CSc1ccc(N2C(=O)NC3(CCCCC3)C2=O)cc1`, the figure is inactive: > 76.9 µM. In the case of `N#CC1=C(N)Oc2c(oc(CO)cc2=O)C1c1cccs1` (configuration not stated) it was inactive: > 76.9 µM; in that of `CC(=O)N1CCN(C(=O)CCc2nc3sc4c(c3c(=O)[nH]2)CCCC4)CC1`, inactive: > 76.9 µM. Take `CCOC(=O)N1CCN(C(=O)c2cn(CC)c3ccc(S(=O)(=O)N4CCCC4)cc3c2=O)CC1`: the Potency was inactive: > 76.9 µM. In the case of `CCc1nnc(NC(=O)CCC(=O)N2CCCC2)s1`, the Potency is inactive: > 76.9 µM. In the case of `CC1CCN(S(=O)(=O)Cc2ccccc2Cl)CC1` it was inactive: > 76.9 µM. As for `CC(C)NC(=O)CCNC(=O)c1ccc(F)cc1`, the figure is inactive: > 76.9 µM. As for `O=C(Nc1cccc(Cn2cccn2)c1)c1cc2c(s1)CCCC2`, the figure is inactive: > 76.9 µM.

In the case of `Cc1ccc2c(c1)[nH]c1c(N3CCN(Cc4ccc5c(c4)OCO5)CC3)ncnc12`, the Potency was inactive: > 76.9 µM. In the case of `Cc1sc(NC(=O)CSc2nnc(C)c(=O)[nH]2)c(C#N)c1C` it was inactive: > 76.9 µM; in that of `Cn1ncc(C#N)c1NC(=O)C1CC(c2c(F)cccc2Cl)=NO1` (configuration not stated), inactive: > 76.9 µM. As for `O=C(c1cnn2c1NC(c1ccco1)CC2C(F)(F)F)N1CCN(c2cccc(Cl)c2)CC1` (configuration not stated), the Potency was inactive: > 76.9 µM. For `CC1=C(C(=O)OC(C)C)C(C)NC(=O)N1` (configuration not stated), the Potency was inactive: > 76.9 µM. In the case of `O=C(Nc1ccccc1C(F)(F)F)C1CC(=O)N(c2ccccc2F)C1` (configuration not stated) it was inactive: > 76.9 µM; in that of `Cc1ccccc1CSc1nnc(-c2cccnc2)n1N`, inactive: > 76.9 µM; in that of `NCc1ccc(-c2nc3ccccc3o2)cc1`, inactive: > 76.9 µM.

`CCc1ccc(NC(=O)N(CCN2CCOCC2)C2CCN(C(C)=O)CC2)cc1`: the Potency was inactive: > 76.9 µM.

For `CCCCCCn1c2c(c(=N)c3c1CCC3)CCC2`, the Potency was inactive: > 76.9 µM. In the case of `O=C(COC(=O)C1CCN(C(=O)c2ccc(Cl)cc2)CC1)c1ccco1` it was inactive: > 76.9 µM; in that of `CCOc1ccccc1OCC(=O)Nc1ccc(S(=O)(=O)N(C)C)cc1`, inactive: > 76.9 µM. With `CCC(Sc1ncccc1C(=O)O)C(=O)N1CCCC1` (configuration not stated), the Potency was inactive: > 76.9 µM. In the case of `CCOc1ccc(-c2[nH]nc3c2C(c2ccc(O)cc2)C(C#N)=C(N)O3)cc1` (configuration not stated) it was inactive: > 76.9 µM. As for `COc1ccc(NC2CC(=O)N(c3cccc(C)c3)C2=O)cc1` (configuration not stated), the figure is inactive: > 76.9 µM; as for `COc1ccc(N2CCN(C(c3cc4ccc(C)cc4[nH]c3=O)c3nnnn3C3CCCC3)CC2)cc1` (configuration not stated), inactive: > 76.9 µM; as for `CCCCn1c2nc3ccccc3nc2c2c(=O)n(CCC(C)C)cnc21`, inactive: > 76.9 µM.

Regarding `Cc1c(Br)c(=O)[nH]c(=O)n1COCc1ccccc1`, the Potency was inactive: > 76.9 µM. In the case of `O=C(NCc1cn2ccsc2n1)Nc1ccc(Cl)cc1` it was inactive: > 76.9 µM; in that of `CCCN(CCC)CCCNC(=O)CC1Nc2ccccc2NC1=O` (configuration not stated), inactive: > 76.9 µM; in that of `CCOC(=O)c1sc(-c2ccccc2)cc1NC(=O)CSc1nnnn1C`, inactive: > 76.9 µM. As for `CCOC(=O)C1=C(C)NC2=C(C(=O)CCC2)C1c1cccs1` (configuration not stated), the Potency was inactive: > 76.9 µM. In the case of `O=C(NC1CCCC1)C(c1cccnc1)N(C(=O)c1csnn1)C1CC1` (configuration not stated) it was inactive: > 76.9 µM; in that of `OC(CN1CCOCC1)CN1CCOCC1`, inactive: > 76.9 µM; in that of `COC(=O)\C(C(C)=O)=C(/C=C/C=C/N(C)C)N(C)C`, inactive: > 76.9 µM.

Consider `Cc1ncoc1C(=O)Nc1nccs1`, for which the Potency is inactive: > 76.9 µM.

For the compound `COc1ccc(OC)c(CNC(=O)C2CCN(C(=O)N(C)C)CC2)c1`, the Potency was inactive: > 76.9 µM. In the case of `CCOC(=O)c1ccccc1NC(=O)CSc1nc2ccccc2n1CC(=O)N1CCCC1` it was inactive: > 76.9 µM.

Regarding `CC(=O)c1cc(OC(=O)N2CCOCC2)ccc1OC(=O)N1CCOCC1`, the Potency was inactive: > 76.9 µM. In the case of `O=C(O)CNC(=O)c1ccccc1F` it was inactive: > 76.9 µM; in that of `CCOC(=O)c1cccc(NC(=O)CN2C(=O)C3C4C=CC(C4)C3C2=O)c1` (configuration not stated), inactive: > 76.9 µM. Turning to `Cc1ccc(C)c2[nH]c(=O)c(CCNC(=O)c3ccc(Br)o3)cc12`, the Potency is inactive: > 76.9 µM. In the case of `CC(C)c1nc2oc3c(NCC4CCCO4)ncnc3c2c2c1COC(C)(C)C2` (configuration not stated), the Potency is inactive: > 76.9 µM. Regarding `CN(C)c1ccc(NC(=O)Nc2cccc(Cl)c2)cc1`, the Potency was inactive: > 76.9 µM.

As for `COc1cccc2c3c(c(C)nc12)CC(C)O3` (configuration not stated), the Potency is inactive: > 76.9 µM. As for `COc1ccc(OC)c(NC(=O)C2CCN(S(=O)(=O)c3cccs3)CC2)c1`, the figure is inactive: > 76.9 µM. `CCC/C(O)=C1\C(=O)CC(C)(C)CC1=Nc1ccc(OC)cc1OC`: the Potency was inactive: > 76.9 µM. In the case of `Cc1ccc(Nc2nc(CSc3nnc(-c4cccs4)o3)cs2)cc1` it was “inactive”; in that of `Nc1cc(C(=O)O)ccc1N1CCCCCC1`, inactive: > 76.9 µM. In the case of `O=C(CS(=O)(=O)Cc1ccccc1)N1CCN(Cc2ccc3c(c2)OCO3)CC1` it was inactive: > 76.9 µM. In the case of `Cc1ccc(Cn2ccc(NC(=O)C3C4CCC(C4)C3C(=O)O)n2)cc1` (configuration not stated) it was inactive: > 76.9 µM; in that of `COc1cccc(-c2noc(CCC(=O)Nc3cccnc3)n2)c1`, inactive: > 76.9 µM. Take `CCCC(=O)Nc1ccc(C(=O)n2nnc3ccccc32)cc1`: the Potency is inactive: > 76.9 µM.

In the case of `Cc1nnc(SCCn2c(N3CC(C)CC(C)C3)nc3c2c(=O)[nH]c(=O)n3C)s1` (configuration not stated), the Potency is inactive: > 76.9 µM. Take `CN1C(=O)c2ccc(NC(=O)c3c(F)c(F)c(F)c(F)c3F)cc2C1=O`: the Potency is inactive: > 76.9 µM. As for `Cc1cc(N2CCN(c3ccccc3)CC2)nc(-n2nc(C)cc2C)n1`, the entry is “inactive”. As for `COc1ccccc1N1CCSC1C(N)=O` (configuration not stated), the figure is inactive: > 76.9 µM.

As for `CCCC(=O)NCCc1cc2cc(C)c(C)cc2[nH]c1=O`, the Potency was inactive: > 76.9 µM.

As to `COc1ccc(OC(C)C(=O)NCc2cccnc2)cc1` (configuration not stated), the Potency is inactive: > 76.9 µM. In the case of `COc1ccc(C(=O)COC(=O)CCn2nnc(-c3cccc(O)c3OC)n2)cc1` it was inactive: > 76.9 µM. In the case of `CCOC(=O)C(Cc1c[nH]c2ccccc12)NC(=O)c1ccco1` (configuration not stated) it was inactive: > 76.9 µM; in that of `CC/C(=C1/C(=O)CC(C)(C)C(C(=O)OC)C1=O)N1CCCC1` (configuration not stated), inactive: > 76.9 µM. As for `COc1cc(OC)cc(C(=O)NCC(=O)N2CCC(C)CC2)c1`, the figure is inactive: > 76.9 µM; as for `CS(=O)(=O)N1CCN(c2ccccc2NC(=O)c2ccc(-c3ccc(Cl)cc3Cl)o2)CC1`, inactive: > 76.9 µM. For the compound `Cc1cc(NS(=O)(=O)c2ccc(NC(=O)C(C)N3C(=O)c4ccccc4C3=O)cc2)nc(C)n1` (configuration not stated), the Potency is inactive: > 76.9 µM. As for `CCNc1oc(COc2cccc(C)c2)nc1C#N`, the figure is inactive: > 76.9 µM; as for `COc1ccc(OC)c2sc(N3CCN(c4ccccc4)CC3)nc12`, inactive: > 76.9 µM; as for `COC(=O)c1ccccc1NC(=O)CC(NCc1ccccc1)C(=O)O` (configuration not stated), inactive: > 76.9 µM.

`C=CCNC(=O)C1CCN(S(=O)(=O)CC)CC1`: the Potency is inactive: > 76.9 µM. Consider `O=C1c2ccccc2NC2(CCCCC2)N1c1ccc(O)cc1`, for which the Potency is inactive: > 76.9 µM. As for `Cc1nc2ncnn2c(C)c1CCC(=O)N1CCOCC1`, the figure is inactive: > 76.9 µM; as for `CN(C(=O)c1c(Cl)nc2sccn12)C1CCCCC1`, inactive: > 76.9 µM; as for `CCn1nnc(NC(=O)c2cc3ccccc3o2)n1`, inactive: > 76.9 µM. In the case of `O=C(c1cccc(-c2nnc(-c3ccccc3)o2)c1)N1CCCCC1` it was inactive: > 76.9 µM; in that of `OC(COCc1cccs1)CN1CCN(c2ccccn2)CC1` (configuration not stated), inactive: > 76.9 µM. As for `Cc1ccc(SCCC(=O)NCc2ccco2)cc1`, the figure is inactive: > 76.9 µM; as for `COCCNC(=O)CCCn1c(=O)c2ccccc2n(CC(=O)NCCC2=CCCCC2)c1=O`, inactive: > 76.9 µM; as for `C=CCn1c(COc2ccccc2)nnc1SCC(=O)O`, inactive: > 76.9 µM. As to `COCCn1c(C)cc(C(=O)COC(=O)c2ccc(-n3nc(C)cc3C)cc2)c1C`, the Potency was inactive: > 76.9 µM. In the case of `CC(C)CN(C(=O)COC(=O)Cc1c[nH]c2ccccc12)C1CCS(=O)(=O)C1` (configuration not stated), the Potency is inactive: > 76.9 µM. Consider `Cc1cc(N(CN2CCCC2=O)C(=O)c2ccccc2)no1`, for which the Potency is inactive: > 76.9 µM. As to `Cn1c(N2CCCCC2)nc2c1c(=O)n(Cc1cccc(Br)c1)c(=O)n2C`, the Potency was inactive: > 76.9 µM. Take `N#Cc1ccccc1NC(=O)COC(=O)c1ccc2c(c1)OCCO2`: the Potency was inactive: > 76.9 µM. As for `O=c1c2nnn(Cc3ccccc3)c2ncn1-c1ccccc1`, the figure is inactive: > 76.9 µM.

Regarding `Cc1ccc(C2CC(c3ccccc3OC(F)F)Nc3ncnn32)cc1` (configuration not stated), the Potency was inactive: > 76.9 µM.

`O=C(CCCC1=NS(=O)(=O)c2ccccc2N1)N1CCN(c2ccccc2)CC1`: the Potency is inactive: > 76.9 µM.

In the case of `COC(=O)C(C)n1cnc2c(nnn2-c2ccc(OC)cc2)c1=O` (configuration not stated), the Potency was inactive: > 76.9 µM.

In the case of `CCNC(=O)c1ccccc1NC(=O)c1cccc(S(=O)(=O)N2CCC(C)CC2)c1`, the Potency was inactive: > 76.9 µM. In the case of `CC1CCN(S(=O)(=O)c2cccc(C(=O)N(C)C3CCS(=O)(=O)C3)c2)CC1` (configuration not stated) it was inactive: > 76.9 µM.
